Experimental data from article PMC4336329 (PLoS ONE, 2015).
Among all 310,000 compounds or so, about 14,000 (4.5%) showed an effect of 50% or more. Effects have a minus sign here. This is one part of the list.

These compounds were tested against human ether-à-go-go-related gene (hERG) potassium channel (human, UniProt Q12809) (assay: primary screen, population patch clamp on CHO cells stably expressing hERG).
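Further: peak tail current of the secondary pulse compared with the same well before compound.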

Sequence of human ether-à-go-go-related gene (hERG) potassium channel (Q12809 whole entry, looked up): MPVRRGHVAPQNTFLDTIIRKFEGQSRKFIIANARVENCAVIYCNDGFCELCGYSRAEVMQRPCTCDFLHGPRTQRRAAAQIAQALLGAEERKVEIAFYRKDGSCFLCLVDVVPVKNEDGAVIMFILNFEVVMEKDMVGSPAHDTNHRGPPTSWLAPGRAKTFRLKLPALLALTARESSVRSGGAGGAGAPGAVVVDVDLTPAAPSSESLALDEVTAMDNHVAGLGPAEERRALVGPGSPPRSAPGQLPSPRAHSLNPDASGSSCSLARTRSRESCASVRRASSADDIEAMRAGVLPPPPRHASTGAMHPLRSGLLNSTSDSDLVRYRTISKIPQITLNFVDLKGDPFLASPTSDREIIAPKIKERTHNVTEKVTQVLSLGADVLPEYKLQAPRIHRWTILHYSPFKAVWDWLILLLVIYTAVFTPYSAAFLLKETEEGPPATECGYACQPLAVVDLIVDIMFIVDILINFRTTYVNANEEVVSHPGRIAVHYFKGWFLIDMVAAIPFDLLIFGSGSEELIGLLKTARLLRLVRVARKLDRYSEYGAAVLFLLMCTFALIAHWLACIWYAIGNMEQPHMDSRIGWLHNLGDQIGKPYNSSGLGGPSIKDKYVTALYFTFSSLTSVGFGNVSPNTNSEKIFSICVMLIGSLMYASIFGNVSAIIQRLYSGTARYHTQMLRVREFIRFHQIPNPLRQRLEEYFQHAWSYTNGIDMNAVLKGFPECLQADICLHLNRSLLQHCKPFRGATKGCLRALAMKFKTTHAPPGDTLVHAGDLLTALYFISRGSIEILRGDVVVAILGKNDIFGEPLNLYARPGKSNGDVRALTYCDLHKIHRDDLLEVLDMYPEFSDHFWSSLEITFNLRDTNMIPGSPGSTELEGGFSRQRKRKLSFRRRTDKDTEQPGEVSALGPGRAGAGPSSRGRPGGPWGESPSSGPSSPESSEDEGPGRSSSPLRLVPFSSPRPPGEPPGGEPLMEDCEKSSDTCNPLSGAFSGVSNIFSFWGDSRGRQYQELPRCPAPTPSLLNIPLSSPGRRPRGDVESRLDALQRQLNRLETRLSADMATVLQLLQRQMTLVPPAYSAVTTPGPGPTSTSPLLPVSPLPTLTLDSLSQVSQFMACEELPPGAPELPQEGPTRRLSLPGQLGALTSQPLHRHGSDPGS

Point of comparison: `O=C(NCc1ccccc1Cl)c1ccc2c(c1)OCO2`, “hERG current change (%, negative = inhibition) at 10uM” value 5.02%. Against it:
- C=CCC1CCCCC12NC(=O)N(c1ccccc1)N2 (stereo not shown) — lower, 0.303%
- O=C(NCCc1ccccc1)C1CCCN1S(=O)(=O)c1ccc(Cl)cc1 (stereo not shown) — lower, -2.11%
- O=c1cc[nH]c(=O)[nH]1 — lower, -23.9%
- O=C(Nc1ccc(S(=O)(=O)Nc2ccccn2)cc1)c1cccc(Br)c1 — higher, 10.7%
- Cn1c(=O)c2sccc2n2c(CCCC(=O)NCCc3ccccc3)nnc12 — lower, -4.14%
- CN(CC(=O)Nc1ccc(F)c(F)c1F)C(=O)C1CCCC1 — lower, 1.05%
- Cc1ccc(C)c(S(=O)(=O)N2CCCC2CNC(=O)C(=O)NC2CCCC2)c1 (stereo not shown) — lower, -21.2%
- COc1ccc(CNC(=O)C23CC4CC(CC(Br)(C4)C2)C3)cc1 — higher, 14.8%
- CC(C)N1C(=O)C(Cc2nc3ccccc3c(=O)n2-c2ccccc2)c2ccccc21 (stereo not shown) — lower, -8.99%
- COc1ccc(OC)c(C(=O)CN2CCN(S(=O)(=O)c3ccc(Br)cc3)CC2)c1 — lower, -27.4%
- O=C(NCc1ccc(Cl)cc1)C(=O)NCC(c1cccnc1)N1CCN(c2ccc(F)cc2)CC1 (stereo not shown) — lower, -45.5%
- Cc1cc(N)ccc1-n1c(C)ccc1C — higher, 6.19%
- CCOC(=O)c1c(C)[nH]c(C(=O)Cn2c(=O)oc3ccccc32)c1C — lower, 2.05%
- CC(=O)OCCc1[nH]c2ccccc2c1C — higher, 12.3%
- Cc1nnc(SCC(=O)NC(=O)NC(C)C)s1 — higher, 15.8%
- CCOc1cc(/C=N/n2c(C)nc3ccccc3c2=O)ccc1O — higher, 23.6%
- COc1ccc(NC(=O)CN(C)C(=O)c2ccc(NS(=O)(=O)c3ccc(F)cc3)cc2)cc1 — higher, 11.8%
- COc1ccc(CC(=O)Nc2ccc(NC(=O)c3ccccc3F)cc2)cc1 — higher, 24.6%
- Cc1nc(NC(=O)COC(=O)C(C)NC(=O)c2ccccc2)c(Cl)cc1Cl (stereo not shown) — lower, -9.81%
- CCC(C)N(CCNC(=O)c1ccc2c(c1)NC(=O)c1ccccc1S2)C1CCCCC1 (stereo not shown) — lower, -66.4%
- O=C(O)c1[nH]c2ccc(Cl)cc2c1CCN1C(=O)c2ccccc2C1=O — lower, -1.64%
- CCN(CC)CCCNc1nc(-c2ccccc2)nc2ccccc12.Cl — lower, -61.4%
- Cc1ccc(NC(=O)c2cncc(Br)c2)cc1S(=O)(=O)N(C)C — higher, 18.6%
- NS(=O)(=O)c1ccc(N/N=C/c2ccc(O)cc2O)c([N+](=O)[O-])c1 — higher, 6.29%
- Cc1cc(NS(=O)(=O)c2ccc(NC(=O)/C=C/c3ccc(C)o3)cc2)nc(C)n1 — higher, 13.5%
- CCn1nnc2cc(C(=O)N(CCOC)CC(=O)Nc3cccc(C)c3C)ccc21 — lower, -11.7%
- O=C(CCN1C(=O)S/C(=C\c2ccccc2)C1=O)NCCCn1ccnc1 — lower, -38.4%
- COc1cc(/C=C2\SC(=S)N(CC(=O)Nc3ccccn3)C2=O)cc(OC)c1OC — lower, 3.36%
- CS(=O)(=O)c1nc(-c2ccccc2)cc(C(F)(F)F)n1 — lower, -37.6%
- O=P(Nc1ccccc1)(Oc1ccccc1)Oc1ccccc1 — higher, 17.2%
- CCOC(=O)c1sc(NC(=O)c2sc(C)nc2C)nc1C — lower, -4.49%
- O=C(C1=C[C@H](c2ccc(Br)cc2)C[C@H](OCCCCO)O1)N1CCN(Cc2ccccc2)CC1 — lower, -80.8%
- CN1CCN(C(=S)NC(=O)c2ccc(C(C)(C)C)cc2)CC1 — higher, 5.45%
- CCn1c(C)cc2c(c1=O)C(c1ccccc1)C(C(=O)OC)=C(N)O2 (stereo not shown) — higher, 26.6%
- COC(=O)Cc1ccc2c3ccccc3n(C)c2c1 — lower, -4%
- CCOC(=O)c1csc(NC(=O)c2ccc(C#N)cc2)n1 — lower, 2.92%
- COc1ccc2[nH]c3c(c2c1)CCN1C(=O)N([C@@H](C)C(=O)NC2CC2)C(=O)[C@]31C — lower, -4.21%
- COc1ccc2c(c1OC)C(=O)OC2C1c2cc3c(cc2CCN1C)OCO3 (stereo not shown) — higher, 6.25%
- COc1ccc(C2c3c(ccc4ccccc34)Oc3ncn4nc(-c5ccco5)nc4c32)cc1OC (stereo not shown) — lower, -13.4%
- Cc1c(Cl)c([N+](=O)[O-])nn1CCCC(=O)O — higher, 9.17%
- Cc1cccc(NC(=O)CCS(=O)(=O)c2cc3c(cc2Cl)NC(=O)CO3)c1 — lower, -12.1%
- C#CCOCCOCCOCCNc1nc(N2CCN(C(=O)[C@H]([C@@H](C)CC)n3cc([C@@H](N)CO)nn3)CC2)nc(N2CCN(C(=O)[C@H]([C@@H](C)CC)n3cc([C@@H](N)CC(C)C)nn3)CC2)n1.Cl — higher, 7.34%
- CC(C)[C@H](NC(=O)c1ccc(Cl)c([N+](=O)[O-])c1)C(=O)O — lower, 0.508%
- Cc1ccc(S(=O)(=O)N2CCN(C(=O)COc3ccc(-c4nnco4)cc3)CC2)cc1 — lower, 3.7%
- c1ccc2sc(NC3=NCN(CC4CCCO4)CN3)nc2c1 (stereo not shown) — higher, 11.7%
- Nn1cnn(Cc2ccccc2)c1=S — higher, 9.91%
- O=C(CSc1ccc(-c2cccs2)nn1)Nc1ccccc1 — lower, -35%
- CCC(C)NC(=O)C1CCN(c2nc(OC)nc(OC)n2)CC1 (stereo not shown) — lower, -4.66%
- COc1cccc(/C=C2\SC(=S)N(CC3CCCO3)C2=O)c1 (stereo not shown) — lower, -0.111%
- CCc1ccc(NC(=O)CSc2nnc(-c3cccs3)n2CC)cc1 — lower, -69.7%
- C(#CC1CCCCC1)c1ccc2c(c1)COc1c3ccccc3nn1-2 — higher, 7.52%
- CC(NC(=O)Nc1ccc(Cl)cc1)c1ccc2c(c1)OCO2 (stereo not shown) — higher, 12%
- O=[N+]([O-])c1ccc(C2=Nn3cnnc3SC2)cc1 — lower, -62.2%
- Cc1oc(C(=O)O)cc1COc1ccccc1Cl — lower, 1.13%
- CCN(CCCNC(=O)C1CCN(S(=O)(=O)CC)CC1)c1cccc(C)c1 — lower, -40.4%
- CCc1nnc(NS(=O)(=O)c2ccc(NC(=O)/C=C/c3ccc(F)cc3)cc2)s1 — higher, 8.28%
- N#Cc1nc(-c2cccs2)oc1NCCc1ccccc1 — lower, 3.08%
- CCN(CC)c1ccc(/C=N\N2CCN(Cc3ccc(C)cc3)CC2)cc1 — lower, -2.72%
- COc1ccc(CNC(=O)COC(=O)CN2C(=O)C(C)Oc3ccc(C)cc32)cc1 (stereo not shown) — lower, 1.11%
- COc1ccc(CN(CC(=O)NC2CCCCC2)C(=O)CCC(=O)Nc2nccs2)cc1 — higher, 12.7%
- Cc1ccc(CN2CC(=O)N3[C@H]4c5cc(Cl)ccc5OC[C@@H]4[C@H](c4ccccc4)[C@]3(C)C2=O)cc1 — higher, 17.5%
- Cc1cccc(Cn2nc(C(C)(C)C)cc2C(=O)Nc2ccc(F)cc2)c1 — higher, 14.8%
- Cn1c(CNC(=O)CNS(=O)(=O)c2ccc(Br)cc2)cc(=O)n(C)c1=O — lower, 1.56%
- Cc1cc(N2C(=O)C(=O)/C(=C(/O)c3ccccc3)C2c2cccc(Br)c2)no1 (stereo not shown) — lower, -3.13%
- O/N=C/c1ccn(-c2ccc(Br)cc2)c1 — higher, 30.1%
- Cc1ccccc1NC(=O)CCOc1ccccc1 — higher, 11.8%
- Nc1nnc(Cc2ccc(Cl)cc2Cl)s1 — higher, 8.94%
- CCCCOc1ccc(/C=c2\sc3ncnn3c2=O)cc1 — lower, -8.12%
- CCCSc1nsc(N)n1 — lower, -0.479%
- Cc1ccc(OCC(=O)N2CCc3ccccc3C2)cc1 — lower, -3.37%
- CCn1c(SCC(=O)N/N=C/c2c[nH]c3ccccc23)nnc1-c1ccc(C)cc1 — lower, 4.16%
- Cn1c(CNC(=O)c2ccccc2F)nnc1SCC(=O)NCc1ccccc1 — higher, 11.1%
- N#Cc1c(N)sc(=S)c2c1CCCCC2 — lower, 4.02%
- CN1C(=O)CC(Sc2ccccc2C(=O)O)C1=O (stereo not shown) — lower, -20.7%
- Clc1cccc(N/N=C/c2ccc(N3CCOCC3)s2)c1 — higher, 8.85%
- Cc1ccc(-c2c(C)n([O-])c3c([n+]2=O)CCCC3)o1 — higher, 14.1%
- CCSc1nnc(NC(=O)Cn2cnc3c2c(=O)n(C)c(=O)n3C)s1 — higher, 11.3%
- COc1ccc(OCCCC(=O)NNC(=O)CCN2CCN(c3ccccc3)CC2)cc1 — higher, 7.89%
- O=C(COc1cc(O)c2c(=O)c3ccccc3oc2c1)OCc1ccccc1 — higher, 5.22%
- COCCOC(=O)c1c(C)n(C)c2ccc(OC(=O)c3cccs3)cc12 — higher, 23.8%
- COCCN(CCOC)c1nc(-c2ccc([N+](=O)[O-])cc2)nc2ccccc12 — lower, -34.3%
- OC(CN1CCN(c2ccccc2)CC1)c1ccc2c(c1)CCN2 (stereo not shown) — lower, -22.2%
- COc1ccc(CNC(=O)c2noc(C(C)C)c2[N+](=O)[O-])cc1 — lower, 3.4%
- C/C(=N\NC(=O)CN1CCN(S(=O)(=O)c2ccc(C)cc2)CC1)c1ccncc1 — lower, -77.1%
- O=C(Cc1ccccc1)NNS(=O)(=O)c1ccccc1[N+](=O)[O-] — higher, 15.5%
- COc1cc(Cc2cc(N)nc(N)n2)cc(OC)c1OC — higher, 18.4%
- Cc1ccc(NC2=CC(=O)OC(C)C2)cc1 (stereo not shown) — higher, 10.3%
